Assay results reported in article PMC4336329 (PLoS ONE, 2015).
Screen size: about 310,000 compounds; about 14,000 (4.5%) showed an effect of 50% or more. Effects have a minus sign here. The list shows a part of the results.

Target: human ether-à-go-go-related gene (hERG) potassium channel (human, UniProt Q12809)
Assay: primary screen, population patch clamp on CHO cells stably expressing hERG
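Further: peak tail current of the secondary pulse compared with the same well before compound.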

Chain of human ether-à-go-go-related gene (hERG) potassium channel (Q12809 whole entry, looked up): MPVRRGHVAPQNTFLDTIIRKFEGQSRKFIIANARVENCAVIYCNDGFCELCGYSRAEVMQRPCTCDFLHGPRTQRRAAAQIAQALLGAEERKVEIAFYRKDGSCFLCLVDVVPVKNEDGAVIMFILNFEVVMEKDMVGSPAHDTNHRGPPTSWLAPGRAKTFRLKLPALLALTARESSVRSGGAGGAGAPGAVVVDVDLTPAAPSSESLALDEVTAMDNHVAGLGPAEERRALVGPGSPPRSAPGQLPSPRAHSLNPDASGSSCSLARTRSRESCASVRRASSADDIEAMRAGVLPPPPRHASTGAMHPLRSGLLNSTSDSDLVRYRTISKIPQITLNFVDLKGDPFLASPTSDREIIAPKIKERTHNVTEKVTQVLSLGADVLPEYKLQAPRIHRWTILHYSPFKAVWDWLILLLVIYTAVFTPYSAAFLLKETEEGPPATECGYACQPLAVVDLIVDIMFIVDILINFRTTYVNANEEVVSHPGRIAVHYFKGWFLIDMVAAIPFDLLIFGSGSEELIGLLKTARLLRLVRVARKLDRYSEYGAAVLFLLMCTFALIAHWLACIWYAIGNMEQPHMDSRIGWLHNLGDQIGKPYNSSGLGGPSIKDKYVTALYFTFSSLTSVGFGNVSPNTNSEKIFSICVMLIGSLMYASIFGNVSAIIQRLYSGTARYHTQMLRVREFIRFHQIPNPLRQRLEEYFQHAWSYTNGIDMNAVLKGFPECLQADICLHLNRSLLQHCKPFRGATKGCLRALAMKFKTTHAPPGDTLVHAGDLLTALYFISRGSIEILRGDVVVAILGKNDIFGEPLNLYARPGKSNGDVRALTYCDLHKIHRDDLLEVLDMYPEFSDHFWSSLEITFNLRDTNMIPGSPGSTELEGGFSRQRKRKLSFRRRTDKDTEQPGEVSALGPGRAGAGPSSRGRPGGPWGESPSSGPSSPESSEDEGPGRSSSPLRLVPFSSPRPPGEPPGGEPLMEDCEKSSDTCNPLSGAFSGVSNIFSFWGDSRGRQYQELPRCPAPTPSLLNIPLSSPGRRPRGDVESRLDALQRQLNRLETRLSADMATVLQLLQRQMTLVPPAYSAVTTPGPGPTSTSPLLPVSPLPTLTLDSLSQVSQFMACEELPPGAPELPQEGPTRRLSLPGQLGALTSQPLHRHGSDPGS

Going from `CCOc1ccccc1C(=O)NCC(=O)Nc1ncccc1C` to `O=C(CNC(=O)c1ccc(F)cc1)c1ccccc1`, the “hERG current change (%, negative = inhibition) at 10uM” value falls from 14% to 10.2%.

Going from `O=C(C[n+]1ccccc1)NNc1ccccc1.[Cl-]` to `CCOP(=S)(NN(Cc1ccccc1)C(=O)c1ccccc1)OCC`, the “hERG current change (%, negative = inhibition) at 10uM” value falls from 4.77% to 3.16%.

Compared with `Cc1c(N=Cc2ccco2)c(=O)n(-c2ccccc2)n1C`, `O=C(c1ccc2ccccc2n1)N1CCN(c2ccccc2)CC1` is lower in “hERG current change (%, negative = inhibition) at 10uM” value: -1.18% for the first, -3.81% for the second.

First: COc1ccc(/C=C/C(=O)N2c3ccccc3Sc3ccc(C(F)(F)F)cc32)cc1
Second: COc1ccc(C(=O)c2ccc(N3CCOCC3)c([N+](=O)[O-])c2)cc1
The “hERG current change (%, negative = inhibition) at 10uM” value of the first is higher: 6.89% for the first, -43.7% for the second.

Going from `CCOC(=O)C1=C(C)NC(C)=C(C(=O)OCC)C1c1ccc(O)cc1` to `CCOC(=O)n1c(=O)n(C)c2ccc(Br)cc21`, the “hERG current change (%, negative = inhibition) at 10uM” value falls from 7.94% to -7.75%.

Compared with `C=CCN1C(=O)C2(OCCCO2)c2cccc(C)c21`, `CCOC(=O)N1CCN(C2OC(=O)c3ccccc32)CC1` (stereo not shown) is higher in “hERG current change (%, negative = inhibition) at 10uM” value: 4.53% for the first, 8.07% for the second.

Compared with `Cc1ccc2sc(N(CCCN(C)C)C(=O)c3ccc(S(=O)(=O)N4CCOCC4)cc3)nc2c1C.Cl`, `CC(=O)Nc1ccc(S(=O)(=O)N2CCN(C(=O)c3ncoc3-c3ccccc3C)CC2)cc1` is higher in “hERG current change (%, negative = inhibition) at 10uM” value: -35.9% for the first, 31.4% for the second.

First: COc1cccc(NC(=O)N2CCN(c3nc(-c4cccc(OC)c4)cs3)CC2)c1
Second: COC(=O)c1cccc(C(=O)Nc2ccc(F)cc2)n1
The “hERG current change (%, negative = inhibition) at 10uM” value of the first is higher: 9.95% for the first, -8.51% for the second.

Going from `COc1ccccc1CNC(=O)C1CCN(S(=O)(=O)c2ccc3c(c2)OCCO3)CC1` to `O=S(=O)(Nc1ccc2c(c1)nc1n2CCN(Cc2ccccc2)C1)c1ccccc1`, the “hERG current change (%, negative = inhibition) at 10uM” value falls from -8.21% to -40.1%.

Compared with `c1ccc2nc(N3CCOCC3)cnc2c1`, `Nc1cc(=O)[nH]c(SCC(=O)Nc2nnc(-c3ccccc3)s2)n1` is higher in “hERG current change (%, negative = inhibition) at 10uM” value: -1.44% for the first, 21.6% for the second.

First: Cc1cc(-c2ccn[nH]2)c(C)s1
Second: COc1cc(Br)c(C(C)NC(=O)c2ccc(C)cc2)cc1OC (stereo not shown)
The “hERG current change (%, negative = inhibition) at 10uM” value of the first is higher: 5.25% for the first, -17.1% for the second.

First: CC(C)(C)c1cnnn1-c1ccc(/C=N/Nc2ccc([N+](=O)[O-])cc2)cc1
Second: CCOc1ccc(NC(=O)CCNS(=O)(=O)c2cccs2)cc1
The “hERG current change (%, negative = inhibition) at 10uM” value of the first is higher: -1.96% for the first, -8.9% for the second.

`CCOC(=O)N1CCN(Cc2cc(=O)oc3cc4c(cc23)CCC4)CC1` was tested, and the “hERG current change (%, negative = inhibition) at 10uM” value was -26.9%.
